In PubChem BioAssay (NCI):
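Exposure lasted 48 hours, with cells grown in 96-well plates and compounds tested at five concentrations. The concentration for 50% growth inhibition is given as GI50. TGI: concentration producing complete growth inhibition.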

The compounds below were run on NCI-H322M lung (assay: NCI tumour cell line growth inhibition, 48 h).

Compared with O=C(O)c1c2c(c(O)c3c1CN(C1CCCCC1)CO3)OCN(C1CCCCC1)C2, CCCCCCc1cc2cc(C(=O)Nc3nc(C45CC6CC(CC(C6)C4)C5)cs3)c(=O)oc2cc1O is lower in TGI: > 100 µM for the first, 57.6 µM for the second.

COc1ccc(Nc2nc3ccccc3nc2-c2cccs2)cc1OC and COc1cc2ncnc(Nc3cccc(Br)c3)c2cc1OC cannot be ordered by TGI: > 10 µM for the first, 46.3 µM for the second.

O=C1c2cccnc2S(=O)(=O)N1c1ccc(Br)cc1 and O=C1CN=C(c2ccccc2)c2ccncc2N1 cannot be ordered by TGI: > 100 µM for the first, > 100 µM for the second.

Going from Cc1cc(NC(=O)NCCCOc2ccc(N3C(N)=NC(N)=NC3(C)C)cc2Cl)ccc1S(=O)(=O)F to CCCSc1ccc2[nH]c(N3C(=O)/C(=C/c4ccc(O)c(OC)c4)N=C3c3ccccc3)cc2c1, the TGI falls from > 93.3 µM to 22.8 µM.

O=C(O)c1ccccc1NS(=O)(=O)c1ccc(Cl)cc1 and CN(N=O)C(=O)NC(CCCCNC(=O)OCc1ccccc1)C(=O)OCc1ccccc1 (stereo unspecified) cannot be ordered by TGI: > 100 µM for the first, > 100 µM for the second.

OC1CCN2Cc3ccccc3N=C12 (stereo unspecified) and CC(C)N1CCOC(c2ccc(O)c(O)c2)C1 (stereo unspecified) cannot be ordered by TGI: > 100 µM for the first, > 100 µM for the second.

CC1=NN(c2ccccc2)C(=O)/C1=C1\SC(c2ccccc2)(c2ccccc2)c2ccccc21 and COC(=O)C12CCCN1CCC2 cannot be ordered by TGI: > 100 µM for the first, > 100 µM for the second.

In the case of C#CCOC(=O)C=[N+]=[N-], the TGI is reported as > 10 µM.

In the case of Cc1cc(NC(=O)NCCCOc2ccc(N3C(N)=NC(N)=NC3(C)C)cc2Cl)ccc1S(=O)(=O)F, the GI50 is reported as 1.58 µM.
